# Laboratory results as given in the BET-seq Pho4 binding data (Le et al. 2018).
# Some of the results follow. These are noisy estimates, calculated here from bound and input reads.
# Target: T1, Pho4 (S. cerevisiae) (UniProt P07270)
# T1 sequence: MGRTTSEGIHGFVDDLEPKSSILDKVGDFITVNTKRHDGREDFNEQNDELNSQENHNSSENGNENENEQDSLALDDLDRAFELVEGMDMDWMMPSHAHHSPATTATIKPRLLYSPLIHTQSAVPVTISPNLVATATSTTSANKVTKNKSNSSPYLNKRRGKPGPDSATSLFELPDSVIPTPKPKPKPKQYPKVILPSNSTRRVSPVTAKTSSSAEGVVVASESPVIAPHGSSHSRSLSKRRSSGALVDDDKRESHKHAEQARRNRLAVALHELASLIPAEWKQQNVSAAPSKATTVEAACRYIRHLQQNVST
# Assay: relative binding free energy (BET-seq); higher = weaker binding
# Settings: reference: library average
row,Sequence,relative binding free energy [kcal/mol]
1,ACTAGCACGTGGTGGG,-0.08
2,AATGGCACGTGGAGAA,-0.11
3,TGCGACACGTGGCTGG,-0.01
4,GTGGACACGTGCGTGT,-0.12
5,AAACGCACGTGGGTGA,-0.13
6,CTTTTCACGTGCTGAG,0.24
7,TATTACACGTGATAGT,0.23
8,TTTTGCACGTGGTGAG,0.04
9,TGTGGCACGTGCGAAG,-0.12
10,GAAAGCACGTGTGTTA,-0.07
11,ATTGTCACGTGTCTAT,0.1
12,AGAGTCACGTGTTCTT,0.07
13,TTCAACACGTGATGGT,0.2
14,TTTATCACGTGAGTAG,0.38
15,AAGGTCACGTGATCTG,0.11
16,AGTATCACGTGAAGAT,0.36
17,GTGAACACGTGCGAGG,-0.03
18,GGTTACACGTGATGTA,0.15
19,ATGTACACGTGAGAAT,0.18
20,GTATGCACGTGTGCGG,0
21,GCGATCACGTGGGAGT,0.15
22,TGATTCACGTGGGAAA,0.13
23,TGTCGCACGTGCATGT,-0.14
24,ATATTCACGTGTAAAT,0.23
25,GTATTCACGTGTATCT,0.38

row,Sequence,relative binding free energy [kcal/mol]
1,CGGTGCACGTGTGGTT,-0.03
2,GTTTACACGTGTGGTC,0.29
3,GTGTACACGTGATCGT,0.27
4,GATACCACGTGGTGGG,-0.08
5,ATATCCACGTGGGTGT,-0.2
6,ACGTACACGTGGGTAG,-0.01
7,AGTAGCACGTGGGTCG,-0.22
8,GGGATCACGTGATATT,0.27
9,AGGTGCACGTGTTGAA,0.03
10,GGCATCACGTGCTGTG,0.19
11,GGGGTCACGTGCATAG,-0.04
12,GAGGTCACGTGCGGCG,0.04
13,TAGGACACGTGGATAG,0.05
14,TAGAGCACGTGGTTTC,-0.12
15,GAGGTCACGTGCTTTG,0.21
16,AATGTCACGTGTCTTT,0.1
17,ATCTTCACGTGTAGTG,0.09
18,GTAAACACGTGTTGTA,0.06
19,GGGAACACGTGGTAGT,0
20,GCTTTCACGTGTAGAG,0.39
21,AGGTGCACGTGTTGCG,0.07
22,ATTATCACGTGGCATT,0.02
23,AGTAACACGTGGTTTA,-0.13
24,GGAATCACGTGGTTGC,0.17
25,GAGAGCACGTGGGCTG,-0.34

row,Sequence,relative binding free energy [kcal/mol]
1,TATGGCACGTGGTATT,-0.1
2,CAGTTCACGTGGTGGC,0.14
3,CTTGTCACGTGTTTTC,0.12
4,TCGGACACGTGAATGG,0.31
5,AAGGGCACGTGTGTTC,-0.19
6,GTTGACACGTGGTTGA,-0.1
7,ATTGTCACGTGAATGG,0.3
8,TCGTTCACGTGAGATG,0.5
9,TGTAACACGTGCATTT,0.1
10,CGGGGCACGTGGGGTC,-0.22
11,ATGTGCACGTGATTAT,0.05
12,AGGGACACGTGGAATT,0.16
13,TAAAGCACGTGCGGTT,-0.23
14,CGAGGCACGTGTTTGA,-0.13
15,GTAGGCACGTGGCTCG,-0.12
16,GTGTTCACGTGATATC,0.34
17,TCTTGCACGTGGCATT,-0.03
18,CGGGTCACGTGTTGTA,0.05
19,AGGAGCACGTGGAGTA,-0.04
20,TTGCTCACGTGCGGTG,0.04
21,GTTCACACGTGGTAGA,0.19
22,GTTGACACGTGCTTTG,-0.01
23,GGTTTCACGTGGAAGA,0.38
